# Test results: PubChem BioAssay AID904 (National Center for Advancing Translational Sciences (NCATS), 2007)
# Out of some 55,000 compounds screened, about 530 (0.96%) were called active. Inconclusive results, whose numbers are uncertain, are shown with a selection of clear calls. Calls come from the whole dose curve; as a rule, active = well fitted cell-killing curve with a large enough effect; inconclusive = small, poorly fitted or top-dose-only effect; inactive = no such curve, though single readings can be large or run the other way. Potencies beside an inconclusive call are fits to weak or partial responses and may not hold up.
# Assay: qHTS Screen for Compounds that Selectively Target Cancer Cells with p53 Mutations: Cytotoxicity of p53 Null Cells at the Nonpermissive Temperature; note: nearly all actives have a fitted effect of over 50% in size;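 for activity, negative = cell killing: 0% = DMSO only and -100% = full killing by 100 µM tamoxifen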
# Settings: H1299 p53-null (neo) cells, 39C, ATPlite viability, 24 h; activity, negative = cell killing: at 46.1 µM (top of the series)
# How it was run: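 ATP-luminescence viability readout (ATPlite, 20 min RT) after 24 hr compound treatment at 39C of H1299-neo or H1299-p53A138V cells; titration up to 46 uM; normalized to DMSO and 100 uM tamoxifen; Hill-fit AC50.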
# Potency is the fitted concentration of half-maximal effect; tags give direction and shape of the fitted curve.
Structure (SMILES),Potency,"activity, negative = cell killing"
Cc1ccc(O)c(/C=N/NC(=O)C2=NNC(c3ccccc3)(c3ccccc3)C2)c1,"inconclusive: 11.2 µM [cytotoxic, partial curve]",–
CCCCNC(=O)CCC(=O)NNc1nc2ccccc2c2nc(-c3ccccc3)nn12,"inconclusive: 15.8 µM [cytotoxic, partial curve]",–
O=C(CSc1nc(-c2ccc(F)cc2)cc(C(F)(F)F)n1)NCc1ccccc1,"inconclusive: 12.6 µM [cytotoxic, partial curve]",–
COc1ccc(N(Cc2cccs2)C(=O)c2ccccc2C)cc1,"inconclusive: 0.794 µM [cytotoxic, full curve]",–
CC(=O)Nc1ccc(NC(=O)CCCc2nc(-c3ccc(C(C)(C)C)cc3)no2)cc1,"inconclusive: 35.5 µM [cytotoxic, single point]",–
COc1ccc(S(=O)(=O)Nc2cccc(-c3ccc(N4CCOCC4)nn3)c2)cc1F,"inconclusive: 3.16 µM [cytotoxic, partial curve]",–
COc1cc(Cl)c(NS(=O)(=O)c2ccc3c(c2)CC(C)N3C(=O)C2CCC2)c(OC)c1 (stereo unspecified),–,inactive: -9.35%
CC(=O)Nc1nonc1-c1nnc(SCC(=O)Nc2ccc(F)cc2F)n1-c1ccccc1,"inconclusive: 0.0316 µM [cytotoxic, full curve]",–
CCN(C(=O)CCc1nc(-c2ccc(C)cc2)no1)c1cc(C)ccc1C,"inconclusive: 35.5 µM [cytotoxic, single point]",–
CCc1ccc(NC(=O)CSc2cn(CC(=O)N3CCCC3)c3ccccc23)cc1,–,inactive: -8.27%
COc1cc(-c2noc(-c3cc(C(C)C)[nH]n3)n2)cc(OC)c1OC,"inconclusive: 0.158 µM [cytotoxic, full curve, poor fit]",–
Clc1ncnc2scc(C3COc4ccccc4O3)c12 (stereo unspecified),–,inactive: 12.5%
CCn1c(SCc2ccccc2Cl)nc(=O)c2c(C(=O)OC)cc(C3CC3)nc21,"inconclusive: 35.5 µM [cytotoxic, partial curve]",–
N#C/C(=C/c1ccc(N2CCOCC2)o1)c1nc2ccccc2[nH]1,"inconclusive: 10 µM [cytotoxic, partial curve, poor fit]",–
CNC(=O)COc1ccc(NC(=O)c2ccc(-c3nn(C)c(=O)c4ccccc34)cc2)cc1,"inconclusive: 31.6 µM [cytotoxic, single point]",–
CCOc1cccc(C(=O)Nc2ccc3oc(-c4cccnc4)nc3c2)c1,–,inactive: -13.7%
CCC(CC)C(=O)Nc1ccc(-c2cn3cccnc3n2)cc1,"inconclusive: 0.158 µM [cytotoxic, full curve, poor fit]",–
CNc1nnc(-c2ccc(N(C)C)cc2)s1,active: 7.94 µM,–
CC(C)n1c(=N)c(C(=O)NCc2cccnc2)cc2c(=O)n3ccccc3nc21,–,inactive: -4.65%
Cc1ccc(CNC(=O)CCc2c(C)nc3c(c(C)nn3-c3ccccc3)c2C)cc1,–,inactive: -14.7%
Cc1ccc(N2C(=O)CSC23C(=O)N(CC(=O)NCCc2ccccc2)c2ccccc23)cc1C (stereo unspecified),–,inactive: 9.84%
COc1ccc(N2CCN(C(=O)C3CCCN(S(=O)(=O)c4ccc5c(c4)CCCN5C(C)=O)C3)CC2)cc1 (stereo unspecified),–,inactive: -10.8%

Structure (SMILES),Potency,"activity, negative = cell killing"
COc1ccc(C2C(C(N)=O)=C(C)Nc3nc(CCCO)nn32)c(OC)c1 (stereo unspecified),"inconclusive: 0.0079 µM [cytotoxic, full curve, poor fit]",–
CCCN1C(C(=O)c2ccccc2)=C(OC(=O)COc2ccccc2)c2ccccc2S1(=O)=O,"inconclusive: 31.6 µM [cytotoxic, single point]",–
CCC(CC)NC(=O)c1oc2ccccc2c1COc1ccccc1,"inconclusive: 0.112 µM [cytotoxic, full curve]",–
COc1ccc(C(=O)NCC(c2cccnc2)N2CCc3ccccc3C2)cc1OC (stereo unspecified),"inconclusive: 1.58 µM [cytotoxic, partial curve]",–
COC(=O)c1cc(NC(=O)c2ccc3c(c2)NC(=O)c2ccccc2S3)cc(C(=O)OC)c1,–,inactive: -7.07%
O=C(Nc1cccc(F)c1F)C1CCN(c2ncccn2)CC1,"inconclusive: 1.41 µM [cytotoxic, full curve]",–
CCCCS(=O)(=O)c1nc(-c2ccc(Br)cc2)cc(-c2ccccc2)c1C#N,–,inactive: 27.6%
Fc1ccc(-c2cn3cc(Cc4ccccc4)sc3n2)cc1,"inconclusive: 0.398 µM [cytotoxic, full curve]",–
Cc1cccc(NC(=O)CSc2nc3ccc(NC(=O)COc4ccccc4F)cc3s2)c1,"inconclusive: 2.51 µM [cytotoxic, full curve]",–
CC1=C(C(=O)Nc2ccc(Cl)cc2)C(c2ccc(C(F)(F)F)cc2)n2nnnc2N1 (stereo unspecified),–,inactive: -19%
COc1ccc(NC(=O)CSc2nccn2Cc2ccco2)c(OC)c1,"inconclusive: 14.1 µM [cytotoxic, single point]",–
Cc1ccccc1NC(=O)c1ccc(Cl)c(S(=O)(=O)N2CCCCCC2)c1,"inconclusive: 35.5 µM [cytotoxic, single point]",–
O=C(N/N=C/c1ccc([N+](=O)[O-])s1)c1cccc(Br)c1,"inconclusive: 11.2 µM [cytotoxic, single point]",–
COc1ccccc1CN1CCC(CNC(=O)c2cnn(-c3ccc(Cl)cc3)c2C2CCN(C(=O)OC(C)(C)C)CC2)CC1,"inconclusive: 31.6 µM [cytotoxic, single point]",–
O=C(NCc1cccs1)c1ccc(Cn2c(SCc3ccc(F)cc3)nc3cccnc32)cc1,"inconclusive: 14.1 µM [cytotoxic, partial curve]",–
COc1ccc(/C=C(\C#N)c2nc3ccccc3n2C)c(OC)c1,"inconclusive: 1.26 µM [cytotoxic, full curve, poor fit]",–
O=S(=O)(c1ccccc1)c1nnn2c1nc(NCc1ccccc1)c1sccc12,"inconclusive: 31.6 µM [cytotoxic, single point]",–
CCC(=O)N1c2ccc(S(=O)(=O)CCC(=O)Nc3ccc(Br)c(C)c3)cc2CC1C (stereo unspecified),"inconclusive: 6.31 µM [cytotoxic, full curve, poor fit]",–
CCCCN(C)CCCNC(=O)Cn1ncc2c3ccccc3n(Cc3cc(C)ccc3C)c2c1=O,active: 10 µM,–
COCCCNC(=O)c1ccc(Cn2c(SCc3cccc(C)c3)nc3cccnc32)cc1,"inconclusive: 11.2 µM [cytotoxic, partial curve]",–
CCc1c(C)c2ccc(O)c(CN3CCN(c4ccccc4)CC3)c2oc1=O,"inconclusive: 35.5 µM [cytotoxic, single point]",–
Cc1cccc(N2CCN(C(=O)c3ccc4c(c3)c(C)c(C)n4C)CC2C)c1 (stereo unspecified),"inconclusive: 35.5 µM [cytotoxic, single point]",–

Structure (SMILES),Potency,"activity, negative = cell killing"
CC(C)(C)c1ccc(-c2noc(CCC(=O)Nc3cccc(Cl)c3)n2)cc1,"inconclusive: 6.31 µM [cytotoxic, full curve, poor fit]",–
COc1ccc(CNC(=O)CN2C(=O)COc3ccc(S(=O)(=O)N4CCOCC4)cc32)cc1,"inconclusive: 15.8 µM [cytotoxic, single point]",–
O=C(CSc1nnc(-c2ccc(Br)cc2)n1-c1ccccc1)c1ccccc1,–,inactive: 10.7%
CNC(=O)CSc1nnc(NC(=O)Nc2ccccc2)s1,"inconclusive: 0.0032 µM [cytotoxic, full curve, poor fit]",–
Cc1ccn2c(Nc3ccc4c(c3)OCCO4)c(-c3ccc(C)s3)nc2c1,active: 10 µM,–
COc1ccc(C(=O)Nc2ccc(N3CCOCC3)c(C(F)(F)F)c2)cc1OC,"inconclusive: 31.6 µM [cytotoxic, single point]",–
Cc1ccc(CN2C(=O)c3ccccc3Sc3ccc(C(=O)NCCCN4CCOCC4)cc32)cc1,"inconclusive: 14.1 µM [cytotoxic, partial curve]",–
CCCN(CCC)CCNC(=O)c1cc(-c2ccc(Br)s2)nc2ccccc12,–,inactive: -18.7%
COc1ccccc1CN1CCC(CNC(=O)c2cnn(-c3ccc(C)c(C)c3)c2C2CCN(C(=O)OC(C)(C)C)CC2)CC1,"inconclusive: 35.5 µM [cytotoxic, single point]",–
Cc1scc(C(=O)N/N=C/c2ccco2)c1C,"inconclusive: 11.2 µM [cytotoxic, partial curve]",–
O=C(CSc1c2c(nc3ccccc13)CCC2)Nc1ccc(F)cc1F,–,inactive: 13.4%
COc1cc(-c2cc3n(C)c(C)c(CCC(=O)Nc4ccc(F)cc4)c(=O)n3n2)cc(OC)c1OC,–,inactive: -1.61%
O=C1C2=C(Nc3ccccc3SC2c2ccc(C(F)(F)F)cc2)c2ccccc21 (stereo unspecified),"inconclusive: 3.16 µM [cytotoxic, partial curve]",–
COc1ccc(CC(=O)Nc2c(C(=O)N3CCN(c4ccccc4F)CC3)oc3ccccc23)cc1OC,–,inactive: 10.6%
COc1ccc(OC)c(NC(=O)Nc2cccc(OCc3cc(=O)n4cc(C)ccc4n3)c2)c1,"inconclusive: 0.126 µM [cytotoxic, partial curve, poor fit]",–
Clc1cccc(-n2ncc3c(NCCC4=CCCCC4)ncnc32)c1,–,inactive: -8.44%
Cc1ccc(Cl)cc1-n1c(=O)c2sc3ccccc3c2n(CC(=O)NC2CCCC2)c1=O,–,inactive: 14.7%
NS(=O)(=O)c1ccc(NC(=O)c2cc(-c3cccs3)nc3ccccc23)cc1,"inconclusive: 15.8 µM [cytotoxic, single point]",–
COc1ccc(-c2noc(CC(=O)N(C)c3ccccc3F)n2)cc1,"inconclusive: 12.6 µM [cytotoxic, single point]",–
CCOc1c(CC2C(=O)Nc3ccc(Br)cc32)cccc1OC (stereo unspecified),–,inactive: 13.7%
CC1(C(=O)Nc2cccc(C(F)(F)F)c2)Cc2ccccc2C(=O)O1 (stereo unspecified),"inconclusive: 0.01 µM [cytotoxic, full curve, poor fit]",–
COC(=O)c1ccc(NC(=O)CSc2nnc(-c3ccccc3)n2C)cc1,"inconclusive: 35.5 µM [cytotoxic, partial curve, poor fit]",–
